According to publication PMC4336329 (PLoS ONE, 2015):
In all, about 310,000 compounds went through this assay and about 14,000 (4.5%) showed an effect of 50% or more. The effect is printed as a negative number. The list shows a part of the results.

Each compound was assayed against human ether-à-go-go-related gene (hERG) potassium channel (human, UniProt Q12809) (assay: primary screen, population patch clamp on CHO cells stably expressing hERG).
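Note: peak tail current of the secondary pulse compared with the same well before compound.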

Sequence of human ether-à-go-go-related gene (hERG) potassium channel (Q12809 whole entry, looked up): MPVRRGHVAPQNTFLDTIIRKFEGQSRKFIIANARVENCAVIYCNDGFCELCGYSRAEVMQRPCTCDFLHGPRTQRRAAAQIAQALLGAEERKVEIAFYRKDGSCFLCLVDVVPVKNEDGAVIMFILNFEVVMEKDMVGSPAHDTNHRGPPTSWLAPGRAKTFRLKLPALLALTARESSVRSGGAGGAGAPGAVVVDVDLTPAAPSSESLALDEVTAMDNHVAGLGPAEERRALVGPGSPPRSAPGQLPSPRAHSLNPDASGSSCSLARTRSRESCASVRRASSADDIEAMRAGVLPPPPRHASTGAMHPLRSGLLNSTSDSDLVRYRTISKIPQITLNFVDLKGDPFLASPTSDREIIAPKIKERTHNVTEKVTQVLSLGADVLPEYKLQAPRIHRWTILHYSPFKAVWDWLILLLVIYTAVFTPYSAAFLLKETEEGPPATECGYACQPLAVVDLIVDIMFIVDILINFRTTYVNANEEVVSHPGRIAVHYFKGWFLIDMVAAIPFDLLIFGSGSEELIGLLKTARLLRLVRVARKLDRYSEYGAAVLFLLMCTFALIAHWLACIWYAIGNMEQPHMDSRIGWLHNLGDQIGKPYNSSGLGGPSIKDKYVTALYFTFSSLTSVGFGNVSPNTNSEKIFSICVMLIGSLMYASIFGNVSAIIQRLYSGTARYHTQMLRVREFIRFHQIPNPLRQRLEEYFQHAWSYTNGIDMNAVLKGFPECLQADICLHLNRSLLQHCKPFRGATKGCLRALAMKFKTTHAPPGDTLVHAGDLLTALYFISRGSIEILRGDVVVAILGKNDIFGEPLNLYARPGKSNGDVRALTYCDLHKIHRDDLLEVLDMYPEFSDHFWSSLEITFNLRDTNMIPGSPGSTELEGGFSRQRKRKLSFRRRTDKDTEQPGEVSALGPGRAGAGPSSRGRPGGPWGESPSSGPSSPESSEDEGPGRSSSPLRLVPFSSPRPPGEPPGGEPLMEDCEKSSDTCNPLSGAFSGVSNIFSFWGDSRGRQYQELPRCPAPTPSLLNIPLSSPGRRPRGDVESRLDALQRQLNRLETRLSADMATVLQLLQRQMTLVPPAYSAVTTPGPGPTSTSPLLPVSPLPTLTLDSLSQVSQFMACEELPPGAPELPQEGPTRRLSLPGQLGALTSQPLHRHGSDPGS

| SMILES | hERG current change (%, negative = inhibition) at 10uM |
| --- | --- |
| CCOP(=S)(OCC)Oc1nc(Cl)c(Cl)cc1Cl | 14.2% |
| Cc1ccc(C2(CC(=O)O)CCOC(C)(C)C2)cc1 (centres unmarked) | 9.86% |
| CC(C)(C)C(=O)Nc1c2c(nn1-c1cccc(Cl)c1)CS(=O)(=O)C2 | -14.1% |
| Cc1cc(O)c(-c2cc(C(=O)Nc3ccc(S(=O)(=O)N4CCOCC4)cc3)[nH]n2)cc1C | -5.54% |
| Cc1ccc(-n2nc(C(N)=O)nc2-c2ccccc2)cc1 | 6.42% |
| CCCCOC(=O)c1ccc(NC(=O)C2CCCO2)cc1 (centres unmarked) | -6.66% |
| O=C(NCCN1CCOCC1)c1cc(-c2ccccc2Cl)nc2ccccc12 | -15% |
| COC(=O)c1cc(CNC(=O)c2cccc(Cl)c2)ccc1OC | -23.9% |
| COC(=O)c1cc(COc2ccc3c(c2)oc(=O)c2ccccc23)c(C)o1 | -18.4% |
| Cc1cccc(C(=O)Nc2nnc(S(=O)(=O)N3CCCCCC3)s2)c1 | -2.86% |
| CCSc1nc2sc3c(c2c2nnc(SCC(=O)NCc4ccco4)n12)CCCC3 | -9.16% |
| CCOC(=O)C1=C(c2ccccc2)NC(SC)=C(C#N)C1c1ccco1 (centres unmarked) | -21.4% |
| COC(=O)c1cn(-c2ccc(Cl)cc2)c(=O)c2ccccc12 | -12.9% |
| COc1ccccc1NC(=O)c1ccc(C(=O)c2ccccc2)o1 | -69.4% |
| O=C(C[N+]1(CC#Cc2ccccc2)CCCCC1)c1ccc(Cl)cc1.[Br-] | -31.2% |
| CS(=O)(=O)c1ccc(Cl)c(NC(=O)COC(=O)C23CC4CC(CC(C4)C2)C3)c1 | -6.48% |
| Cc1cccc2sc(N(CCCN(C)C)C(=O)c3sc4ccccc4c3Cl)nc12.Cl | -13.5% |
| COc1ccc(OC)c(NC(=O)c2cc(-c3c(C)cc(C)cc3O)n[nH]2)c1 | 36.6% |
| O=S(=O)(Nc1ccc(Br)cc1)c1cccc(NC(=S)NCCN2CCOCC2)c1 | 3.16% |
| CC(C)Cc1ccc(CN2CCCC(NC(=O)c3ccoc3)C2)cc1 (centres unmarked) | -70.9% |
| CCCCn1nnnc1SCC(=O)NCc1ccccc1 | 1.07% |
| COc1ccc(Cl)cc1C(=O)NNC(=S)NC(=O)c1ccc(F)c(F)c1 | 21% |

| SMILES | hERG current change (%, negative = inhibition) at 10uM |
| --- | --- |
| O=C(O)c1ccc(/C=C2\SC(=S)N(NC(=O)c3ccccc3[N+](=O)[O-])C2=O)cc1 | 12.4% |
| CCc1cc(=O)oc2cc(C)cc(OC(=O)c3ccco3)c12 | 2.73% |
| c1ccc(-c2ccnc3nc(-n4cccc4)nn23)cc1 | 20% |
| Cc1cc(-c2nnc(SCC(=O)Nc3cccc(F)c3)n2N)n[nH]1 | 6.38% |
| COc1ccc(NC(=O)CN2CCN(c3ccccc3)CC2)cc1 | 1.85% |
| CCSc1nc(C)nc2sc(C)c(C)c12 | 14.7% |
| CC(=O)N1CCN(S(=O)(=O)c2ccc(C)cc2)C1C (centres unmarked) | 5.41% |
| Cc1ccccc1OCC(O)CNC1CCCC1.Cl (centres unmarked) | 4.67% |
| CC1(c2nnc(-c3cccc(Cl)c3)o2)CC(c2ccc(Cl)cc2)=NO1 (centres unmarked) | 8.43% |
| Cc1c(CCC(=O)O)c(=O)oc2cc(OCc3ccc(Br)cc3)ccc12 | 22.2% |
| CCOC(=O)Cc1[nH]nc2c1C(c1cccc(OC)c1OC)C(C#N)=C(N)O2 (centres unmarked) | -0.21% |
| Cc1occc1C(=O)N1CCCC(Nc2ccc(C(C)C)cc2)C1 (centres unmarked) | -21.1% |
| Cc1noc(/C=C/c2ccco2)c1S(=O)(=O)N1CCC(C(=O)NCc2ccco2)CC1 | -30.1% |
| COc1ccc(/C=N/N2CCOCC2)cc1COc1ccc(Cl)cc1 | 3.02% |
| O=C(Nc1ccccc1N1CCOCC1)c1ccccc1NS(=O)(=O)c1ccc(F)c(F)c1 | -26.5% |
| O=C(O)c1ccccn1 | 3.29% |
| O=C(NCC(=O)N1CCN(c2ncccn2)CC1)c1ccc(F)cc1 | -16.6% |
| CCc1cccc(C)c1NC(=O)CSc1nnc(Cc2csc(C)n2)o1 | -4.21% |
| COc1ccc(Cc2nnc(NC(=O)CSc3ccccc3)s2)cc1 | 1.93% |
| COc1ccc(-n2cc3c(-c4cccc(Br)c4)nnc(C)c3n2)cc1 | 25.8% |
| CCCCN(C(=O)C1CC(=O)N(c2ccc(OC)cc2OC)C1)c1c(N)n(CC(C)C)c(=O)[nH]c1=O (centres unmarked) | 17.1% |
| Cn1c(CNc2nc3ccccc3n2C)nc2ccccc21 | -15.2% |
